# Test results from the supplement of paper PMC8728848.
# This is one part of the list.
# Key:
# Experiment in all cases: glycan array binding signal (z-score within array); higher = stronger binding
# Conditions in all cases: glycan notation: IUPAC condensed, linker removed
# Fuc(a1-2)Gal = molecular target: Fuc(a1-2)Gal
# Outline: (§1)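 Columns mapping to the same glycan were averaged after glycan names were converted to IUPAC-condensed notation. The data come from 3228 arrays in the Consortium for Functional Glycomics database, limited to those with an available protein sequence. Binding is reported as a within-array Z-score averaged across arrays of one protein sequence and across linkers.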
# Fuc(a1-2)Gal(b1-3)GalNAc = molecular target: Fuc(a1-2)Gal(b1-3)GalNAc
# Outline: as §1
# [1] = molecular target: Fuc(a1-2)Gal(b1-3)GalNAc(a1-3)[Fuc(a1-2)]Gal(b1-4)Glc
# Outline: as §1
# [2] = molecular target: Fuc(a1-2)Gal(b1-3)GalNAc(a1-3)[Fuc(a1-2)]Gal(b1-4)GlcNAc
# Outline: as §1
# [3] = molecular target: Fuc(a1-2)Gal(b1-3)GalNAc(b1-3)Gal
# Outline: as §1
# [4] = molecular target: Fuc(a1-2)Gal(b1-3)GalNAc(b1-3)Gal(a1-4)Gal(b1-4)Glc
# Outline: as §1
# [5] = molecular target: Fuc(a1-2)Gal(b1-3)GalNAc(b1-4)[Neu5Ac(a2-3)]Gal(b1-4)Glc
# Outline: as §1
# Fuc(a1-2)Gal(b1-3)GlcNAc = molecular target: Fuc(a1-2)Gal(b1-3)GlcNAc
# Outline: as §1
# [6] = molecular target: Fuc(a1-2)Gal(b1-3)GlcNAc(b1-2)Man(a1-3)[Fuc(a1-2)Gal(b1-3)GlcNAc(b1-2)Man(a1-6)]Man(b1-4)GlcNAc(b1-4)GlcNAc
# Outline: as §1
# [7] = molecular target: Fuc(a1-2)Gal(b1-3)GlcNAc(b1-2)Man(a1-3)[Fuc(a1-2)Gal(b1-3)GlcNAc(b1-2)Man(a1-6)]Man(b1-4)GlcNAc(b1-4)[Fuc(a1-6)]GlcNAc
# Outline: as §1
# [8] = molecular target: Fuc(a1-2)Gal(b1-3)GlcNAc(b1-3)Gal(b1-4)Glc
# Outline: as §1
# [9] = molecular target: Fuc(a1-2)Gal(b1-3)GlcNAc(b1-3)GalNAc
# Outline: as §1
# [10] = molecular target: Fuc(a1-2)Gal(b1-3)GlcNAc(b1-3)[Fuc(a1-2)Gal(b1-3)GlcNAc(b1-6)]GalNAc
# Outline: as §1
# [11] = molecular target: Fuc(a1-2)Gal(b1-3)GlcNAc(b1-3)[Gal(b1-4)GlcNAc(b1-6)]Gal(b1-4)Glc
# Outline: as §1
# [12] = molecular target: Fuc(a1-2)Gal(b1-3)GlcNAc(b1-3)[Neu5Ac(a2-6)Gal(b1-4)GlcNAc(b1-6)]Gal(b1-4)Glc
# Outline: as §1
# [13] = molecular target: Fuc(a1-2)Gal(b1-3)GlcNAc6S
# Outline: as §1
# [14] = molecular target: Fuc(a1-2)Gal(b1-3)[Fuc(a1-4)]GlcNAc
# Outline: as §1
# [15] = molecular target: Fuc(a1-2)Gal(b1-3)[Fuc(a1-4)]GlcNAc(b1-2)Man(a1-3)[Fuc(a1-2)Gal(b1-3)[Fuc(a1-4)]GlcNAc(b1-2)Man(a1-3)]Man(b1-4)GlcNAc(b1-4)GlcNAc
# Outline: as §1
# [16] = molecular target: Fuc(a1-2)Gal(b1-3)[Fuc(a1-4)]GlcNAc(b1-2)Man(a1-3)[Fuc(a1-2)Gal(b1-3)[Fuc(a1-4)]GlcNAc(b1-2)Man(a1-6)]Man(b1-4)GlcNAc(b1-4)[Fuc(a1-6)]GlcNAc(b1-4)[Fuc(a1-6)]GlcNAc
# Outline: as §1
# [17] = molecular target: Fuc(a1-2)Gal(b1-3)[Fuc(a1-4)]GlcNAc(b1-3)[Fuc(a1-3)[Gal(b1-4)]GlcNAc(b1-6)]Gal(b1-4)Glc
# Outline: as §1
# [18] = molecular target: Fuc(a1-2)Gal(b1-3)[Fuc(a1-4)]GlcNAc(b1-3)[Gal(b1-4)GlcNAc(b1-6)]Gal(b1-4)Glc
# Outline: as §1
# [19] = molecular target: Fuc(a1-2)Gal(b1-4)Fuc(a1-3)]GlcNAc(b1-2)Man(a1-3)[Fuc(a1-2)Gal(b1-4)[Fuc(a1-3)]GlcNAc(b1-2)Man(a1-6)]Man(b1-4)GlcNAc(b1-4)GlcNAc
# Outline: as §1
# Fuc(a1-2)Gal(b1-4)Glc = molecular target: Fuc(a1-2)Gal(b1-4)Glc
# Outline: as §1
# Fuc(a1-2)Gal(b1-4)Glc6S = molecular target: Fuc(a1-2)Gal(b1-4)Glc6S
# Outline: as §1
# Fuc(a1-2)Gal(b1-4)GlcNAc = molecular target: Fuc(a1-2)Gal(b1-4)GlcNAc
# Outline: as §1
# [20] = molecular target: Fuc(a1-2)Gal(b1-4)GlcNAc(b1-2)Man
# Outline: as §1
# [21] = molecular target: Fuc(a1-2)Gal(b1-4)GlcNAc(b1-2)Man(a1-3)[Fuc(a1-2)Gal(b1-4)GlcNAc(b1-2)Man(a1-6)]Man(b1-4)GlcNAc(b1-4)GlcNAc
# Outline: as §1
# [22] = molecular target: Fuc(a1-2)Gal(b1-4)GlcNAc(b1-2)Man(a1-3)[Fuc(a1-2)Gal(b1-4)GlcNAc(b1-2)Man(a1-6)]Man(b1-4)GlcNAc(b1-4)[Fuc(a1-6)]GlcNAc
# Outline: as §1
# [23] = molecular target: Fuc(a1-2)Gal(b1-4)GlcNAc(b1-2)[Fuc(a1-2)Gal(b1-4)GlcNAc(b1-4)]Man(a1-3)[Fuc(a1-2)Gal(b1-4)GlcNAc(b1-2)Man(a1-6)]Man(b1-4)GlcNAc(b1-4)GlcNAc
# Outline: as §1
# [24] = molecular target: Fuc(a1-2)Gal(b1-4)GlcNAc(b1-3)Gal(b1-4)GlcNAc
# Outline: as §1
binder,measurement,setting,value
SSR2 (Sclerotium rolfsii) (protein) MVYKITVRVYQTNPDAFFHPVEKTVWKYANGGTWSITDDQHVLTMGGSGTSGTLRFHADNGESFTATFGVHNYKRWCDIVTNLAADETGMVINQQYYSQKNREEARERQLSNYQVKNAKGRNFQIVYTEAEGNDLHANLIIG,glycan array binding signal (z-score),Fuc(a1-2)Gal,-0.279
same,glycan array binding signal (z-score),Fuc(a1-2)Gal(b1-3)GalNAc,-0.275
same,glycan array binding signal (z-score),[1],-0.277
same,glycan array binding signal (z-score),[2],0.154
same,glycan array binding signal (z-score),[3],-0.268
same,glycan array binding signal (z-score),[4],-0.298
same,glycan array binding signal (z-score),[5],-0.282
same,glycan array binding signal (z-score),Fuc(a1-2)Gal(b1-3)GlcNAc,-0.284
same,glycan array binding signal (z-score),[6],-0.289
same,glycan array binding signal (z-score),[7],-0.278
same,glycan array binding signal (z-score),[8],-0.284
same,glycan array binding signal (z-score),[9],-0.294
same,glycan array binding signal (z-score),[10],-0.238
same,glycan array binding signal (z-score),[11],-0.267
same,glycan array binding signal (z-score),[12],-0.287
same,glycan array binding signal (z-score),[13],-0.238
same,glycan array binding signal (z-score),[14],-0.278
same,glycan array binding signal (z-score),[15],-0.272
same,glycan array binding signal (z-score),[16],-0.256
same,glycan array binding signal (z-score),[17],-0.287
same,glycan array binding signal (z-score),[18],-0.29
same,glycan array binding signal (z-score),[19],-0.214
same,glycan array binding signal (z-score),Fuc(a1-2)Gal(b1-4)Glc,-0.321
same,glycan array binding signal (z-score),Fuc(a1-2)Gal(b1-4)Glc6S,-0.292
same,glycan array binding signal (z-score),Fuc(a1-2)Gal(b1-4)GlcNAc,-0.285
same,glycan array binding signal (z-score),[20],-0.282
same,glycan array binding signal (z-score),[21],-0.268
same,glycan array binding signal (z-score),[22],-0.269
same,glycan array binding signal (z-score),[23],-0.278
same,glycan array binding signal (z-score),[24],-0.258
